# Laboratory results reported in PubChem BioAssay AID504332 (National Center for Advancing Translational Sciences (NCATS), 2011).
# Hit rate of the full screen: of about 350,000 compounds, about 31,000 (8.9%) were called active. The shares of active, inactive and inconclusive entries below differ from those in the screen. Calls follow the shape of the dose curve; as a rule, active = well fitted inhibition curve with a large enough effect; inconclusive = small, poorly fitted or top-dose-only effect; inactive = no such curve, though single readings can be large or run the other way. Where the call is inconclusive, the potency comes from a doubtful curve fit.
# Target: Histone-lysine N-methyltransferase EHMT2 (Homo sapiens) (UniProt Q96KQ7)
# Sequence of UniProt Q96KQ7 (Q96KQ7 whole entry, looked up): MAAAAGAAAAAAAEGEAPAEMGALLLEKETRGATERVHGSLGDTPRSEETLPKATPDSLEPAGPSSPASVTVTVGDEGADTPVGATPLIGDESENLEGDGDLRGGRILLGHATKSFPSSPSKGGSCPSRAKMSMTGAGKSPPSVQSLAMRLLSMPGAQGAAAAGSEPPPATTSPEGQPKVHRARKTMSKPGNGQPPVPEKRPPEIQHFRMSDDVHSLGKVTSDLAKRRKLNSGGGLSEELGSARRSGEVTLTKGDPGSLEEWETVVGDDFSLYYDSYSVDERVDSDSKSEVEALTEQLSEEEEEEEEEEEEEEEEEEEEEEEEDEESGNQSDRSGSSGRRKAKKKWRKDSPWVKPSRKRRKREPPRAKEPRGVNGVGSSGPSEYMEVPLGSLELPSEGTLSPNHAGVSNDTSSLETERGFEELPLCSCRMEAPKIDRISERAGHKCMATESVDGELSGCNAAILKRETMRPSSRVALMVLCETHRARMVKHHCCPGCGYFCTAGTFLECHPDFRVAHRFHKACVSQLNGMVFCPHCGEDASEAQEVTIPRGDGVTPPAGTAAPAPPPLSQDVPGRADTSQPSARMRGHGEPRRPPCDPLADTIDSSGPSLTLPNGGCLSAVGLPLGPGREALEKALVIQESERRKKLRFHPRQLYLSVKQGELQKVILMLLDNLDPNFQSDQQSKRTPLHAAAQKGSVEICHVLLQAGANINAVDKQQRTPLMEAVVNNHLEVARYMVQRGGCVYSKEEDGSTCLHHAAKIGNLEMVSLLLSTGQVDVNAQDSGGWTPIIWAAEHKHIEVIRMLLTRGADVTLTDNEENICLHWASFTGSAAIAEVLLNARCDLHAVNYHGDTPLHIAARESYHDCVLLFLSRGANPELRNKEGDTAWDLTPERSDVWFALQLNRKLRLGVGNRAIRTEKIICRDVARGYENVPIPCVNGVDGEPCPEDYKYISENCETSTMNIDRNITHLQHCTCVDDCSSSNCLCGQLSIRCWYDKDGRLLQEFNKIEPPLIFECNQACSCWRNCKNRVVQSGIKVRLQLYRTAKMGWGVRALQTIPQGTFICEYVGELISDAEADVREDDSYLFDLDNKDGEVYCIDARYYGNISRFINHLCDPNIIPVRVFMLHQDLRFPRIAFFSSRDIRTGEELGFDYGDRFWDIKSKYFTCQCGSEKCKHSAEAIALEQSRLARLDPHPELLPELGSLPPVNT
# Assay: qHTS Assay for Inhibitors of Histone Lysine Methyltransferase G9a; also: nearly all actives have a fitted effect of over 75% in size
# Settings: G9a H3K9 monomethylation, AlphaScreen, 2 h; activity, negative = inhibition: at 59 µM (top of the series) unless noted
# Summary of the method: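 G9a (20 nM) preincubated 15 min RT with compounds, then 500 nM biotinylated H3K9 peptide and 20 uM SAM added; 2 h RT reaction. Monomethyl-H3K9 product detected by AlphaScreen with anti-H3K9me1 antibody, streptavidin donor and anti-rabbit IgG acceptor beads.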
# % is scaled to controls: 0 for no effect and ±100 for the full control effect; potency is read from the fitted curve at half-maximal effect; tags tell the direction and shape of the fitted curve.
Structure (SMILES),Potency,"activity, negative = inhibition"
Cc1ccccc1N1CCN(C2CCCN(C(=O)c3cnsn3)C2)CC1 (stereo unspecified),inactive,
COCCNC(=O)c1c(-c2ccccc2)c(-c2ccccc2)nn(C)c1=O,"inconclusive: 25.1 µM [inhibitor, single point]",
O=C(O)C1CC=C(Cl)CC1C(=O)NC1CCCCC1 (stereo unspecified),"inconclusive: 89.1 µM [inhibitor, single point]",
Cc1ccc2c(c1)c(=O)c1c3n2CCN(C(=O)CCl)C3CC1 (stereo unspecified),active: 11.2 µM,
Cc1ccc(NC(=O)CNC(=O)Cn2c(C)cc3ccccc3c2=O)cc1F,inactive,
S=C(NNc1ccnc2cc(Cl)ccc12)Nc1ccc(Cl)cc1Cl,"inconclusive: 3.98 µM [inhibitor, single point]",
NC1=NC(=O)/C(=C/c2ccc(Br)cc2)S1,,inactive: 12.5% [at 0.501 µM]
O=C(CCn1cnc2ccccc2c1=O)Nc1nc(-c2ccc(Br)cc2)cs1,"inconclusive: 31.6 µM [inhibitor, single point]",
O=C(Nc1cccnc1)c1c(O)c2cccc3c2n(c1=O)CC3,,inactive: -35.9% [at 12.7 µM]
c1ccc(Nc2nc(NCCN3CCOCC3)nc(Nc3ccccc3)n2)cc1,"inconclusive: 70.8 µM [inhibitor, partial curve]",
O=C(Nc1ccc(S(=O)(=O)N2CCCCC2)cc1)C1CCCO1 (stereo unspecified),inactive,
CC(=O)Nc1ccc2c(c1)nc1n2CCN(C2CCCCC2)C1,active: 10 µM,
CCOC(=O)c1c(C)[nH]c(C)c1S(=O)(=O)NCc1cc(C)ccc1C,"inconclusive: 79.4 µM [inhibitor, single point]",
Brc1ccc(Sc2cnc3ccccc3n2)cc1,inactive,
O=C(CC(C(=O)O)P(=O)(c1ccccc1)c1ccccc1)c1ccc(Br)cc1 (stereo unspecified),"inconclusive: 79.4 µM [inhibitor, single point]",
CCOC(=O)c1cnc2cc(C(F)(F)F)ccc2c1N1CCN(c2cccc(Cl)c2)CC1,inactive,
O=C1NCCC/C1=N\Nc1ccc(Br)cc1,active: 50.1 µM,
CC(C)=CC(=O)N1CCC(n2nccc2NC(=O)CCc2ccccc2)CC1,"inconclusive: 89.1 µM [inhibitor, single point]",
Cc1cccc(C(=O)OC(C)C(=O)Nc2ccc(S(=O)(=O)N3CCCC3)cc2)c1O (stereo unspecified),"inconclusive: 56.2 µM [inhibitor, partial curve, poor fit]",
Cc1ccc(F)cc1NC(=O)CCc1c(C)nn(-c2ccc(N3CCCC3)nn2)c1C,inactive,
O=C(CCN1C(=O)c2ccccc2S1(=O)=O)N1CCN(c2cccc(Cl)c2)CC1,"inconclusive: 79.4 µM [inhibitor, partial curve, poor fit]",
CCC(Sc1nnc(C)n2c1cc1sccc12)C(=O)Nc1ccccc1F (stereo unspecified),inactive,
COc1ccc(NC(=O)c2ccccn2)cc1OC,"inconclusive: 39.8 µM [inhibitor, single point]",

Structure (SMILES),Potency,"activity, negative = inhibition"
CCOc1ccccc1C(=O)Nc1ccc(S(=O)(=O)Nc2onc(C)c2C)cc1,inactive,
CC(OC(=O)CCCN=C1NS(=O)(=O)c2ccccc21)C(=O)Nc1ccc(F)c(F)c1F (stereo unspecified),"inconclusive: 39.8 µM [inhibitor, partial curve, poor fit]",
Cc1ccc(C(=O)NCCCCNC(=O)c2ccc(C)o2)o1,"inconclusive: 0.631 µM [inhibitor, full curve, poor fit]",
CC(=O)c1ccc(NC(=O)Cn2cnc3nc4c(cc3c2=O)CC(C)CC4)cc1 (stereo unspecified),inactive,
CCOc1cccc(C2c3[nH]c4ccccc4c3CCN2C(=O)c2ccccc2F)c1 (stereo unspecified),"inconclusive: 44.7 µM [inhibitor, partial curve, poor fit]",
Cc1cc(=S)[nH]c2ccccc12,active: 2.82 µM,
CC1CC(C)(C)OC(C[N+]2(C)CCCCC2)O1 (stereo unspecified),"inconclusive: 79.4 µM [inhibitor, single point]",
CNC(=O)C1CC(=O)N(c2ccc(OCC(=O)Nc3ccc(OC)cc3)cc2)C1 (stereo unspecified),,inactive: 32.8% [at 12.7 µM]
CC1(C)CC(=O)C(C=NCCN2CCN(C(=O)CCl)CC2)=C(O)C1,"inconclusive: 25.1 µM [inhibitor, single point]",
Fc1ccc(Cn2nnnc2CN2CCN(C3CCCC3)CC2)cc1,,inconclusive: -79.7% [inhibitor]
CN(C)C(=O)NC(Nc1cccc([N+](=O)[O-])c1)C(Cl)(Cl)Cl (stereo unspecified),"inconclusive: 56.2 µM [inhibitor, partial curve]",
NS(=O)(=O)c1ccc(NC(=O)CN2CCCc3ccccc32)cc1,active: 28.2 µM,
CNC(=S)N/N=C/c1c(C)cccc1Cl,inactive,
CCN1CCN(Cc2nc3cc(NC(=O)c4cc(OC)c(OC)c(OC)c4)ccc3n2CC)CC1,"inconclusive: 31.6 µM [inhibitor, partial curve, poor fit]",
CCn1nc(NS(=O)(=O)c2ccc([N+](=O)[O-])cc2)c2cc3ccccc3nc21,active: 44.7 µM,
CSc1nnc(-c2nnc(SC)n2-c2ccccc2)n1-c1ccccc1,"inconclusive: 50.1 µM [inhibitor, partial curve]",
Cc1ccc(C)c(N2CCN(C(=O)Cn3ncc4c(=O)oc5ccccc5c43)CC2)c1,"inconclusive: 14.1 µM [inhibitor, partial curve]",
COc1cc(/C=C2/SC(=S)N(CC(=O)Nc3nc4ccccc4s3)C2=O)cc(OC)c1OC,inactive,
COc1ccc(C(CC(=O)O)NS(=O)(=O)c2ccc3c(c2)NC(=O)CO3)cc1 (stereo unspecified),"inconclusive: 39.8 µM [inhibitor, single point]",
COc1ccccc1CN(CC(=O)NCc1ccco1)C(=O)CNS(=O)(=O)c1ccc(C)cc1,,inconclusive: -59% [inhibitor]
Cc1ccc2scc(N3CCc4ccccc4C3)c(=O)c2c1,"inconclusive: 31.6 µM [inhibitor, partial curve, poor fit]",
CC(=O)c1ccc(OC(=O)c2nc(-c3ccccc3)oc2C)cc1,active: 56.2 µM,
O=C1c2ccccc2C(O)(Cc2ccccc2)N1Cc1ccco1 (stereo unspecified),"inconclusive: 39.8 µM [inhibitor, single point]",
